PubChem BioAssay AID1671194 (National Center for Advancing Translational Sciences (NCATS), 2021)
About 240 (0.17%) of roughly 140,000 compounds were called active. Inconclusive results, whose numbers are uncertain, are shown with a selection of clear calls. Calls follow the shape of the dose curve; as a rule, active = well fitted inhibition curve with a large enough effect; inconclusive = small, poorly fitted or top-dose-only effect; inactive = no such curve, though single readings can be large or run the other way. A potency beside an inconclusive call is a rough fit, not a confirmed value.
Potency is read from the fitted curve at half-maximal effect; tags tell the direction and shape of the fitted curve.

Test: Primary qHTS assay for inhibitors of alpha-synuclein gene (SNCA) expression; also: nearly all actives have a fitted effect of over 45% in size;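 as to activity change, negative = inhibition: plate controls were DMSO cells for no effect and cell-free wells for full effect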
Details: HEK-293 SNCA-luciferase knock-in, luminescence, 24 h; activity change, negative = inhibition: at 57.2 µM (top of the series) unless noted
In the case of COc1cccc(-c2ccc3c(N)c(C(=O)Nc4ccccc4C)sc3n2)c1, the Potency is reported as inconclusive: 39.8 µM [inhibitor, single point].
In the case of CN(c1ccccc1)c1cc(=O)c2ccnc(-c3cncnc3)c2o1, the “activity change, negative = inhibition” value is reported as inactive: -27.8% [at 87.6 µM].
For COc1ccc(CN2Cc3[nH]nc(-c4ccccc4Oc4ccccc4)c3CC2=O)cc1, the Potency was inconclusive: 56.2 µM [inhibitor, single point].
In the case of N[C@@H](CO)c1nc(C2CCOCC2)nn1-c1ccccc1F, the “activity change, negative = inhibition” value is reported as inactive: 15.7%.
With O=C(c1ccnc(-c2ccncc2)c1)N1CCCC1 the “activity change, negative = inhibition” value was inactive: -4.71%.
For COCCNC(=O)c1cnc2c(c1)N(Cc1ccccc1C(F)(F)F)CCC2, the “activity change, negative = inhibition” value was inactive: -5.85% [at 87.6 µM].
For CCn1cc(C(=O)Nc2ccc(C(C)C)cc2)c2cc(OC)c(OC)cc2c1=O, the Potency was inconclusive: 39.8 µM [inhibitor, single point].
With CCc1cnc2c(c1SCCC(C)C)c(=O)n(C)c(=O)n2C the “activity change, negative = inhibition” value was inactive: 0.159%.
In the case of O=C(NC1CCN(c2cc(C(F)(F)F)ncn2)CC1)c1cccc(Cl)c1, the “activity change, negative = inhibition” value is reported as inactive: 13.7%.
For COCCOC1CCOC2(CCN(C(=O)COc3ccc(C)cc3)CC2)C1 (stereo unspecified), the “activity change, negative = inhibition” value was inactive: -11.1%.
With Cc1cccc(N2CCN(c3nc4ccccc4c4nc(-c5cccnc5)nn34)CC2)c1C the Potency was inconclusive: 0.178 µM [inhibitor, partial curve, poor fit].
For COCCOCC(=O)N1CCCCCCNC(=O)[C@@H]2C[C@@H](c3nc(Cc4ccccc4)no3)C[C@@H]21, the “activity change, negative = inhibition” value was inactive: 19.7%.
In the case of COc1ccccc1OC1(C(=O)O)CCN(C(=O)C2CC23CCC3)CC1 (stereo unspecified), the Potency is reported as inconclusive: 3.16 µM [inhibitor, single point].
With Cc1cc(=O)[nH]c(NCCNc2nccc(-c3cccnc3)n2)n1 the “activity change, negative = inhibition” value was inactive: 0.999%.
With CCOc1cc(-c2noc(-c3ncn4c3COC(c3ccc(OC)cc3)C4)n2)ccc1OC (stereo unspecified) the “activity change, negative = inhibition” value was inactive: -2.59%.
For OC(CN1CCC(Cc2ccc(F)cc2)CC1)c1ccc(Cl)cc1 (stereo unspecified), the Potency was inconclusive: 3.98 µM [inhibitor, partial curve, poor fit].
In the case of O=C(O)c1ccc(CN2CCC[C@@H](O)[C@H](NC(=O)c3ccc(OCc4ccccc4)cc3)C2)cc1, the “activity change, negative = inhibition” value is reported as inactive: 13.4%.
With Cc1ccnc(N2CCN(C3CCC4(CCNCC4)CC3)CC2)c1 the Potency was inconclusive: 11.2 µM [inhibitor, partial curve, poor fit].
In the case of C#CCNC[C@@H]1C=C(C)[C@H](Cc2nnc(Cc3c[nH]c4ccccc34)o2)C[C@H]1C(C)C, the Potency is reported as inconclusive: 31.6 µM [inhibitor, partial curve, poor fit].
In the case of FC(F)(F)c1ccc(C=Cc2nc(COc3ccc(CCCCn4ccnn4)cc3)co2)cc1, the Potency is reported as inconclusive: 0.0681 µM [inhibitor, full curve, poor fit].
For O=C(NCc1cccc(C(F)(F)F)c1)c1nc2sccn2c1-c1ccncc1, the Potency was inconclusive: 2.51 µM [inhibitor, full curve].
In the case of COc1cc(C2c3c(-c4ccccc4O)n[nH]c3C(=O)N2CCO)ccc1OCC(C)C (stereo unspecified), the Potency is reported as inconclusive: 39.8 µM [inhibitor, single point].
In the case of Cc1ccc(C)c(CSc2cn(CCNC(=O)c3ccccc3F)c3ccccc23)c1, the Potency is reported as inconclusive: 31.6 µM [inhibitor, single point].
For COc1ccc(-c2cc3c(=O)n(CCNC(=O)Cc4cccs4)ccn3n2)cc1, the “activity change, negative = inhibition” value was inactive: 5.02%.
In the case of COc1cc(F)c(CN2CCN(C)C3(CCNC(=O)CC3)C2)c(F)c1 (stereo unspecified), the Potency is reported as inconclusive: 3.16 µM [inhibitor, single point].
For O=C1NC(C(=O)N2CCOCC2)Cn2cccc21 (stereo unspecified), the Potency was inconclusive: 10 µM [inhibitor, partial curve, poor fit].
In the case of CCCN1CCN(CCCNC(=O)Cn2c(-c3cccs3)cc3cc(Cl)ccc32)CC1, the Potency is reported as inconclusive: 2 µM [inhibitor, full curve, poor fit].
For O=C(NCCC1CCN(C(=O)Nc2ccc(F)cc2)CC1)c1ccccn1, the Potency was inconclusive: 3.55 µM [inhibitor, partial curve, poor fit].
In the case of CC(C)CCNC(=O)c1cn(C)c2ccc(S(=O)(=O)N3CCOCC3)cc2c1=O, the Potency is reported as inconclusive: 25.1 µM [inhibitor, partial curve, poor fit].
In the case of CCc1nc(C)c(C(=O)N2C[C@@H](CN3CCOCC3)[C@@H](CO)C2)o1, the Potency is reported as inconclusive: 1.78 µM [inhibitor, full curve].
In the case of Cc1nn2c(=O)cc(COC(=O)c3ccc(NC(=O)c4cccs4)cc3)nc2s1, the Potency is reported as inconclusive: 17.8 µM [inhibitor, single point].
With Cc1cc(C)cc(NC(=O)CN2C(=O)CCc3cc(S(=O)(=O)N4CCCCC4)ccc32)c1 the Potency was inconclusive: 39.8 µM [inhibitor, single point].
For COc1ccc(CCNC(=O)c2c(C)nn(-c3ccc(F)cc3)c2-n2cccc2)c(OC)c1OC, the Potency was inconclusive: 39.8 µM [inhibitor, single point].
In the case of COc1ccc(-n2ncc(C(=O)Nc3ccc4c(c3)OCCO4)c2C2CCN(C(=O)OC(C)(C)C)CC2)cc1, the Potency is reported as inconclusive: 39.8 µM [inhibitor, single point].
With O=C(NC1CCCc2c1[nH]c1ccc(Cl)cc21)c1ccncc1 (stereo unspecified) the “activity change, negative = inhibition” value was inactive: -0.358%.
In the case of COc1ccc2[nH]cc(CCNC(=O)c3cnn(-c4ccccc4Cl)c3C3CCN(C(=O)OC(C)(C)C)CC3)c2c1, the Potency is reported as inconclusive: 39.8 µM [inhibitor, single point].
In the case of O=C1N(C2CCN(S(=O)(=O)c3ccccc3)CC2)C(c2ccncc2)C12CCCCC2 (stereo unspecified), the Potency is reported as inconclusive: 39.8 µM [inhibitor, single point].
With COc1ccc(-c2noc(CC3CCN(C(=O)c4ccccc4OC)CC3)n2)cc1 the Potency was inconclusive: 39.8 µM [inhibitor, single point].
With CCOC(=O)c1ccc(NC(=O)Cn2c(N3CCc4ccccc4C3)nc(C)cc2=O)cc1 the Potency was inconclusive: 39.8 µM [inhibitor, single point].
For CCOC(=O)N1CCC(N2CCN(c3cc(C(C)C)nc(C)n3)CC2)CC1, the Potency was inconclusive: 3.16 µM [inhibitor, single point].
For CN(Cc1ccccc1)c1ncccc1CNC(=O)CN1CCOC1=O, the Potency was inconclusive: 1.26 µM [inhibitor, full curve].
